The campaign covered roughly 350,000 compounds. About 9,900 (2.8%) were called active. The inconclusive results got no clear call from the source; some entries with a clear call stand among them for comparison. The call rests on the fitted dose curve; in most records, active means well fitted activation curve with a large enough effect; inconclusive means small, poorly fitted or top-dose-only effect; inactive means no such curve, though single readings can be large or run the other way. Potencies of inconclusive entries are left out as doubtful fits.
Assay: A quantitative high throughput screen for small molecules that induce DNA re-replication in MCF 10a normal breast cells. Further: nearly all actives have a fitted effect of over 50% in size.
Settings: MCF 10A DNA re-replication, Hoechst nuclear intensity, 48 h; series mostly up to 46.1 µM
Potency means the concentration at half of the fitted maximal effect; tags describe the fitted curve by direction and shape.

Row | Compound | Potency
1 | Nc1cc(N2CCCCC2)c(Cl)cc1[N+](=O)[O-] | inconclusive [activator, partial curve]
2 | O=C(NCCc1nc2ccccc2[nH]1)c1cc([N+](=O)[O-])cc([N+](=O)[O-])c1 | inactive
3 | NC(=O)c1ncn([C@@H]2O[C@H](CNCc3cnc(N4CCOCC4)s3)[C@@H](O)[C@H]2O)n1 | inactive
4 | CC(C)(C)OC(=O)C[C@H]1C/C=C\C[C@H](CC(=O)N[C@H](CO)Cc2ccccc2)C(=O)N2CCC[C@@H]2COC1=O | inactive
5 | O=C(Nc1ccncc1)c1cc(-c2ccccn2)nc2ccccc12 | inconclusive [activator, single point]
6 | C/C(=N\NC(=O)CC(C)C)c1ccc(Cl)c(Cl)c1 | inconclusive [activator, partial curve, poor fit]
7 | CCCCOCCCNC(=O)C1CCCCC1 | active: 11.6 µM
8 | CCn1c(O)c(C(C#N)=C2N=c3ccccc3=N2)c2ccccc21 | inconclusive [activator, single point]
9 | CC(=O)N1CCN(c2ccc(NC(=S)NC(=O)COc3ccc(C(C)(C)C)cc3)cc2)CC1 | inconclusive [activator, partial curve, poor fit]
10 | COc1cc(OC)cc(C(=O)Nc2ccc(C(=O)Nc3ccccc3OC)cc2)c1 | inconclusive [activator, single point]
11 | CC1=NN(C(N)=S)C(=O)C1N=Nc1c(C)cc(C)cc1C (stereo not drawn) | inconclusive [activator, full curve, poor fit]
12 | Cc1ccc(S(=O)(=O)N2CCN(C(=O)C3CCCC3)CC2)cc1C | inconclusive [activator, partial curve, poor fit]
13 | CSc1nc(SCC(=O)O)c2sc3nc(-c4ccccc4)c4c(c3c2n1)CCC4 | inconclusive [activator, single point]
14 | Clc1cc(Cl)c2nc(N3CCCC3)sc2c1 | inconclusive [activator, partial curve, poor fit]
15 | N/C(=N\OC(=O)c1ccc([N+](=O)[O-])cc1Cl)c1ccccn1 | inactive
16 | Nc1c(C(=O)NCCN2CCOCC2)c2nc3ccccc3nc2n1-c1ccccc1 | inactive
17 | Cc1ccc(NC(=O)/C(Cl)=C\c2ccccc2)cc1 | inactive
18 | O=C(c1ccc(NC(=S)NCc2ccc(Cl)cc2)cc1)N1CCCCC1 | inconclusive [activator, partial curve, poor fit]
19 | O=c1nc(Nc2cccc(Cl)c2)oc2cc(Cl)oc(=O)c12 | active: 16.4 µM
20 | CCc1ccc(CN2CCCC(CCC(=O)N3CCN(c4ccccn4)CC3)C2)o1 (stereo not drawn) | inactive
21 | O=C(N[C@@H](CO)C(=O)NCc1ccccc1)c1ccc(C(F)(F)F)cc1 | inconclusive [activator, full curve, poor fit]
22 | O=C(CN1C(=O)C(=O)N(Cc2ccccc2)C1=O)Nc1cc(Cl)cc(Cl)c1 | inconclusive [activator, single point]
23 | C=C1[C@H](C)CN[C@H]1CCO | inconclusive [activator, partial curve, poor fit]

Row | Compound | Potency
24 | Cc1cccc(NC(=S)NCc2ccc3[nH]c4c(c3c2)CCCC4)c1 | inconclusive [activator, partial curve]
25 | CCc1ccc(NC(=O)CCCN2C(=O)C3CC=CCC3C2=O)cc1 (stereo not drawn) | inactive
26 | Cc1ccc(Sc2c([N+](=O)[O-])c(C)nn2C)cc1 | inconclusive [activator, partial curve, poor fit]
27 | Cc1ccccc1/C=N/Nc1nc2ccccc2[nH]1 | inconclusive [activator, single point]
28 | O=c1nc2ccccc2c2n1CC(CN1CCN(C(c3ccccc3)c3ccccc3)CC1)N2 (stereo not drawn) | inconclusive [activator, partial curve, poor fit]
29 | COc1cccc(NC(=O)CN(C)C(C)C(=O)NC(=O)NC2CCCCC2)c1 (stereo not drawn) | inconclusive [activator, single point]
30 | CCCCC(=O)Nc1nn(CC)c2nc3c(C)cccc3cc12 | inconclusive [activator, single point]
31 | COc1ccccc1N1CCN(C(=O)c2ccc3[nH]c4c(c3c2)CC(C)CC4)CC1 (stereo not drawn) | inconclusive [activator, single point]
32 | Cc1cc(OC(C)C(=O)NCc2ccccn2)c2c(C)c(Cc3ccccc3)c(=O)oc2c1 (stereo not drawn) | inconclusive [activator, single point]
33 | COc1ccc(CCNc2c3ccccc3nc3ccccc23)cc1OC | active: 6.51 µM
34 | O=C(Nc1ccc(-c2noc(CCc3ccccc3)n2)cc1)c1ccco1 | inconclusive [activator, single point]
35 | Cn1c(=O)n(C)c2cc(NS(=O)(=O)c3ccc(Cl)s3)ccc21 | inconclusive [activator, single point]
36 | CN(Cc1ccccc1)S(=O)(=O)c1ccc(C(=O)Nc2nnc(C3CC3)o2)cc1 | inactive
37 | C=CCN(c1ccccc1OC)S(=O)(=O)c1cccc(C(=O)OCC(=O)c2c[nH]c3ccccc23)c1 | inactive
38 | Cc1nn(Cc2ccc(Cl)c(Cl)c2)c(C)c1NC(=O)c1sc2ccccc2c1Cl | inconclusive [activator, partial curve, poor fit]
39 | COC(=O)c1c(N2C(=O)[C@H]3[C@@H](C2=O)[C@]2(C(=O)Nc4c2ccc(C)c4C)N2CCC[C@@H]32)sc(C)c1C | inconclusive [activator, single point]
40 | Cc1nc2ccc(NC(=O)c3ccc(S(=O)(=O)N(C)c4ccccc4)cc3)cc2s1 | inconclusive [activator, partial curve, poor fit]
41 | Cc1cc(C)c(NC(=O)CSc2nc3ccc(NC(=O)CSc4nnnn4Cc4ccccc4)cc3s2)c(C)c1 | inactive
42 | COc1cc(C(=O)ON=C2C=C(C)C(=O)C(C)=C2)cc(OC)c1OC | inconclusive [activator, single point]
43 | COC(=O)c1sccc1NC(=O)c1cc(-c2cccc(C)c2)nc2ccccc12 | inconclusive [activator, partial curve]
44 | CCCC[C@@H]1CN=C(N)N1CC(C)(C)C | inconclusive [activator, single point]
45 | C/C(=N\NC(=O)c1ccccc1[N+](=O)[O-])c1c(O)cc(C)oc1=O | inactive
46 | Cc1ccc(-c2cnc3ccccc3n2)cc1C | active: 18.4 µM

Row | Compound | Potency
47 | COc1ccc(CCNC(=O)CCC(=O)N2CCOc3ccccc32)cc1OC | inactive
48 | O=c1cccc2c1c1cc[nH]c3ccc(=O)n2c31 | inconclusive [activator, single point]
49 | CCOc1ccc(-n2c(=O)c3ccccc3c3ccccc3c2=O)cc1 | inactive
50 | CC(=O)c1sc(-c2cccc(Cl)c2)nc1C | inconclusive [activator, partial curve, poor fit]
51 | CCCCNC(=S)N/N=C1\C(=O)c2cccc3cccc1c23 | inactive
52 | CCOC(=O)COc1ccc2ccccc2c1/C=C/[N+](=O)[O-] | inconclusive [activator, full curve, poor fit]
53 | NC(=O)c1c(NC(=O)c2cc3ccccc3o2)sc2c1CCC2 | inconclusive [activator, single point]
54 | COc1ccc(NC(=O)COC(=O)c2cc(OC)c(OC)cc2NC(=O)c2ccco2)cc1OC | inconclusive [activator, full curve, poor fit]
55 | COc1cccc(/C=C2/CCC(CN(C)C)C2=O)c1 (stereo not drawn) | active: 2.31 µM
56 | CCc1ccc(NC(=O)CC2C(=O)Nc3c2c(=O)n(C)c(=O)n3C)cc1 (stereo not drawn) | inactive
57 | COCCN(C(=O)COC(=O)CCC1CCCC1)c1c(N)n(Cc2ccccc2)c(=O)[nH]c1=O | inactive
58 | CCCc1cc(-c2nc(N)ncc2-c2ccc3c(c2)OCCCO3)c(O)cc1OC | inconclusive [activator, single point]
59 | CC(C)C(NS(=O)(=O)c1cccc(C(F)(F)F)c1)C(=O)N1CCc2ccccc2C1 (stereo not drawn) | inconclusive [activator, single point]
60 | Cc1ccc(NC(=O)CSc2ccc(-c3cccnc3)nn2)cc1Cl | inconclusive [activator, partial curve, poor fit]
61 | Cc1ccc(OCCOCCN2CCN(C)CC2)c(C(C)(C)C)c1 | inactive
62 | Cc1ccc(/C=C2/Sc3ccc(C(=O)N4CCN(C)CC4)cc3NC2=O)cc1 | inconclusive [activator, single point]
63 | O=[N+]([O-])c1ccc(Sc2cccc3cccnc23)cc1 | inactive
64 | CC(C(=O)N1CCN(c2ccc(Cl)cc2)CC1)c1ncc(C(F)(F)F)cc1Cl (stereo not drawn) | inconclusive [activator, partial curve, poor fit]
65 | Cc1ccccc1Cn1c(=O)n(CCCC(=O)NCc2ccco2)c(=O)c2sccc21 | inconclusive [activator, single point]
66 | Cc1ccc(S(=O)(=O)N2CCN(C(=O)Cn3cnc4c3c(=O)n(C)c(=O)n4C)CC2)cc1C | inactive
67 | O=C(NCc1nc(-c2ccccc2)no1)c1ccc2c(c1)OCO2 | inconclusive [activator, partial curve, poor fit]
68 | CCCCN(C(=O)CSc1nnc(-c2ccc(OC)cc2)n1C(C)C)c1c(N)n(Cc2ccccc2)c(=O)[nH]c1=O | inactive
